# Experimental data from article PMC6919601, “Identification of Plasmodium dipeptidyl aminopeptidase allosteric inhibitors by high throughput screening” (PLoS ONE, 2019).
# Among all 110,000 compounds or so, about 230 (0.21%) showed an effect of 50% or more. The list shows a part of the results.
# Biological target: DPAP1 (Plasmodium falciparum, UniProt Q8IIJ9)
# Assay: primary screen, percent inhibition; read by cleavage of a fluorogenic dipeptide substrate; higher = more effect of the substance
# Design: species or system P. falciparum D10 trophozoite lysates; single well
# 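Also: 30 min substrate incubation versus DMSO and 10 µM JCP410 controls.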
# DPAP1, sequence (Q8IIJ9 whole entry, looked up): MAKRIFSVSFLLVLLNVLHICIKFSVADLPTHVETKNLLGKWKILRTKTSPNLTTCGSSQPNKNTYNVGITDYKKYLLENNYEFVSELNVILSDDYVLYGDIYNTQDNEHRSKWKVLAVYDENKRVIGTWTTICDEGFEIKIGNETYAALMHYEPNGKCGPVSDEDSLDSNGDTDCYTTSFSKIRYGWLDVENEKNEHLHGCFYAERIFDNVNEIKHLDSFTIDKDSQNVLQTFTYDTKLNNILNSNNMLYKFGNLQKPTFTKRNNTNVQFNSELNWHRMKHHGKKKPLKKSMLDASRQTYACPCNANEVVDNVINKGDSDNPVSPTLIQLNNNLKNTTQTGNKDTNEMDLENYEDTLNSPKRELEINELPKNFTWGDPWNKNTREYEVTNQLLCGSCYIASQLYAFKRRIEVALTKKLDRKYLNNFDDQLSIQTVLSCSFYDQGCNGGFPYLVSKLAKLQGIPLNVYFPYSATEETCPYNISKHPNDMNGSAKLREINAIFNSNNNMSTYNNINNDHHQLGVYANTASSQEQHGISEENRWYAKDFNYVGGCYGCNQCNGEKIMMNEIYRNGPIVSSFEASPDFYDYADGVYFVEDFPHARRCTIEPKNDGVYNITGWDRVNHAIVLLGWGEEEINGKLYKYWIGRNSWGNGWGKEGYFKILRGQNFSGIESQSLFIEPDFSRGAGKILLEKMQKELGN
row,SMILES,% Inhibition @ 10 uM [%]
1,Cc1ccc(CNCc2c(C(=O)O)n(C)c3ccccc23)cc1,5.09
2,O=C(CCn1cccn1)NCCCc1ccccc1,-5.72
3,c1ccc2oc(SCc3nc4c5c6c(sc5ncn4n3)CCCCC6)nc2c1,3.43
4,Cc1cc(NC(=O)C2CCCN(c3ncnc4c3nc3n4CCCCC3)C2)no1 (centres unmarked),5.49
5,O=c1c(CN2CCC3(C=Cc4ccccc43)CC2)coc2ccccc12,3.35
6,CCN(C(=O)/C=C/c1cccc([N+](=O)[O-])c1)c1ccccc1,-3.71
7,Cc1cc(C)c(C(N)=O)c(NCCc2ccccc2)n1,-3.5
8,CCOC(=O)C1=CN(C(C)C)C=C(C(=O)OCC)C1c1cc(Br)ccc1OC,1.66
9,O=C(COc1ccc(S(=O)(=O)NC2CCCCC2)cc1)NC1CCCC1,-0.48
10,CN1CCCN(C2CCCCCC2)CC1,1.29
11,N#CCNC(=O)[C@H](CS(=O)(=O)Cc1ccc(C(=O)O)cc1)NC(=O)c1ccccc1,-0.214
12,Cc1ccc(-n2ncc(C(=O)N3CCCCC3)c2NC(=O)c2ccco2)cc1C,-5.13
13,CN(C)c1ccc(CN2CCN(c3ncccn3)CC2)cc1,3.1
14,Cc1ccc(NC(=O)C2CC(=O)N(c3ccc(Cl)cc3)C2)cc1C (centres unmarked),3.53
15,O=C(O)c1ccc(CNC(=O)C2CCCCC2C(=O)O)cc1 (centres unmarked),5.99
16,CC1(C)CC(=O)/C(=C/c2ccco2)CO1,4.66
17,CC1CCCCC1NC(=O)Cn1ncn2nc(-c3cccs3)cc2c1=O (centres unmarked),-2.85
18,Cc1cccc(NC(=O)c2cccc(OCc3ccccc3)c2)n1,9.19
19,Cc1c(CNC2CCC(C)CC2)c(C(=O)O)c(C)n1Cc1ccc(F)cc1Cl (centres unmarked),-0.439
20,O=C(CCn1nc(-c2ccccc2)ccc1=O)N1CCN(c2ccccn2)CC1,1.62
21,Cc1cc(C)c(S(=O)(=O)Nc2ccc(S(=O)(=O)NC(C)(C)C)cc2)c(C)c1,-7.23
22,COCc1noc2c1C(c1cccc(Br)c1)C(C#N)=C(N)N2 (centres unmarked),-2.8
23,COC(=O)C1=C(C)N(Cc2cccnc2)C(=O)/C1=C\c1cc(OC)c(OC)c(OC)c1,2.7
24,O=C(Nc1ccccc1F)c1cccc(C(=O)Nc2ccccc2F)c1,-4.4
25,CC1=C(C(=O)NCCc2ccc(Cl)cc2)C2(CCC(C)CC2)OC1=O (centres unmarked),3.19

row,SMILES,% Inhibition @ 10 uM [%]
1,Oc1ccc(C2N=C(c3ccccc3)NC(c3ccccc3)=N2)cc1,-2.66
2,COc1ccc(Br)cc1CNC(=O)CN(C)c1nn2c(=O)cc(C)nc2s1,-3.79
3,CCOc1ccc(-c2[nH]c3c(C#N)cnn3c2NC2CCC(C)CC2)cc1 (centres unmarked),-1.11
4,CCOC(=O)c1c(NC(=O)/C(C#N)=C\c2ccco2)sc2c1CCCC2,6.11
5,O=C(c1cc2nc(-c3cccs3)cc(C(F)(F)Cl)n2n1)N1CCSCC1,4
6,O=C(Cn1cnc2ccc(Cl)cc2c1=O)Nc1ccc2c(c1)OCO2,-3.04
7,COc1ccc(C2C(C#N)=C(N)Oc3cc4c(cc32)OCO4)cc1Cl (centres unmarked),2.51
8,COCCNC(=O)C(CCS(C)(=O)=O)N1Cc2ccccc2C1=O (centres unmarked),-2.69
9,COC(=O)Nc1c(-c2ccccc2)nc2ccc(Cl)cn12,6.76
10,CCSC1=C(C#N)C(c2ccc(C)cc2)C2=C(O)CCCC2=N1 (centres unmarked),-3.21
11,CN(C)CCNC1CCN(CCc2ccccc2)CC1,4.75
12,CC1CN(c2nc3ccccc3nc2SCC(=O)NCCc2ccccc2)CC(C)O1 (centres unmarked),0.032
13,C=CCSc1nc(=O)c2c(n1C)NC(=O)CC2c1cccc(F)c1F (centres unmarked),-1.11
14,O=C(COc1ccc(C(=O)Nc2cccc(C(F)(F)F)c2)cc1)Nc1ccc(F)cc1,-2.09
15,C=CCNC(=O)C(=O)NCc1ccc(Cl)cc1,-4.01
16,COc1ccccc1-c1cc(CC(C)C)nc(N)c1C#N,-2.21
17,Cc1nn(-c2cc(Cl)nc(-c3ccccc3)n2)c(N)c1C#N,0.726
18,O=C(c1cccnc1)N1CCC(c2c[nH]c3ccccc23)(c2c[nH]c3ccccc23)CC1,-2.37
19,COc1ccc(NC(=O)c2ccccc2C)c(N)c1,5.15
20,CC1=C(C(=O)Nc2cc(C)ccn2)C(c2ccc(F)cc2)C2=C(O)CCCC2=N1 (centres unmarked),-4.65
21,COc1ccc(-n2c(S)nnc2CCN2CCN(C)CC2)cc1,0.986
22,COC(=O)[C@H](CC(C)C)NC(=O)[C@@H]1C[C@@H](O)CN1C#N,0.744
23,Cc1ccc(S(=O)(=O)N2CCN(C)CC2)c(C)c1N(C)S(=O)(=O)c1ccc(Cl)cc1,2.01
24,CN1CCN(CCN2CCn3c2nc2ccccc23)CC1,0.147
25,CC(=O)CC(c1ccc(Br)cc1)c1c(O)oc2ccccc2c1=O (centres unmarked),4.88

row,SMILES,% Inhibition @ 10 uM [%]
1,Cc1cc(NC(=O)Cn2nc(C(F)F)cc2C)ccc1Br,0.35
2,Cc1ccc(-c2c(C(=O)NC3CCN(Cc4ccccc4)CC3)oc(=O)c3ccccc23)cc1,0.208
3,COc1cc(-c2nc(-c3cc(C)nc4ccccc34)no2)cc(OC)c1OC,-6.71
4,O=C(CSc1nc(-c2ccco2)cc(C(F)(F)F)n1)NCC1CCCO1 (centres unmarked),4.64
5,Cc1cc(C)c2nc(N3CCC(C(=O)NCc4cccnc4)CC3)sc2c1,6.46
6,Cc1ccc(NC(=O)c2ccc(S(=O)(=O)N3CCCCC3C)cc2)cc1 (centres unmarked),-0.641
7,Cc1ccc2c(c1)-c1onc(C(=O)N3CCN(C)CC3)c1CO2,2.2
8,CCOc1ccc(S(=O)(=O)Nc2ccc(S(=O)(=O)Nc3ccccc3)cc2)cc1,13.3
9,Cc1onc(-c2c(Cl)cccc2Cl)c1C(=O)NCCc1ccc(S(N)(=O)=O)cc1,-6.87
10,CC(C)C[C@H](NC(=O)c1cccc(CN)c1)C(=O)NCC#N,-3.97
11,CCOc1ccc(C2SCC(=O)Nc3c2c(O)nn3C(C)CC)cc1 (centres unmarked),-0.666
12,CCN(CC)CCN1C(=O)C(O)=C(C(=O)c2ccc(Cl)cc2)C1c1cccs1 (centres unmarked),-2.73
13,CC(C)(C)c1[nH]nc2c1C(c1c(Cl)cccc1Cl)C(C#N)=C(N)O2 (centres unmarked),4.52
14,CCOC(=O)C1CCCN(c2cc(C)c3cc(OC)ccc3n2)C1 (centres unmarked),-5.16
15,CC(C)CN(CC(C)C)C(=O)c1cc(-c2ccccc2)[nH]n1,6.73
16,CCOC(=O)N1CCC(NC(=O)Cn2ncn3nc(-c4ccco4)cc3c2=O)CC1,-2.85
17,COc1ccc(C2C(C(=O)c3cc4ccccc4o3)=C(O)C(=O)N2c2nccs2)cc1 (centres unmarked),2.1
18,CCOC(=O)C(=O)C(C#N)c1ccccc1 (centres unmarked),-2.14
19,COc1ccc(C(=O)CCNC(C)C(=O)O)cc1 (centres unmarked),5.85
20,CCCN1CCN(C(=O)CCn2c(=O)c3cccn3c3cccnc32)CC1,3.38
21,COC(=O)c1ccc(/N=C2/S/C(=C\c3cc(OC)c(O)cc3Br)C(=O)N2C)cc1,-1.82
22,COc1nc(N)c2c(c1C#N)N=C1CCCC(O)=C1C2c1ccccc1 (centres unmarked),2.65
23,CCOC(=O)/C(C#N)=C/c1cc(Cl)cc(Cl)c1O,1.87
24,CCN1C(=O)N/C(=C/c2ccc(Sc3ccc(C)cc3)o2)C1=O,-1.33
25,CC(C)(C)c1ccc(C2CC(=O)Oc3c2c(=O)oc2ccccc32)cc1 (centres unmarked),1.32

row,SMILES,% Inhibition @ 10 uM [%]
1,Cc1ccccc1NC(=O)c1ccc(N(Cc2ccc(Cl)cc2)S(C)(=O)=O)cc1,-6.27
2,CCC(=O)c1c(C)nn(-c2ccccc2)c1O,-1.37
3,COc1ccc(Cn2c(SCc3ccc(C(=O)NCc4ccccn4)cc3)nc3cccnc32)cc1,5.38
4,Cc1ccccc1-c1nn2c(-c3ccncc3)nnc2s1,-4.02
5,O=C1C2C(C(=O)N1c1ccc(Cl)cc1)C1C=CC2C12CC2 (centres unmarked),3.45
6,CCC1CCCCN1CCCNC(=O)C1c2ccccc2C(=O)N(CCOC)C1c1cccs1 (centres unmarked),-3.27
7,Cc1ccc(C)c(NC(=O)c2ccc(Cl)cc2)c1,2.22
8,COc1ccc(C2=NN3C(C2)c2cc(Cl)ccc2OC3(C)C)cc1 (centres unmarked),50.9
9,CCOC(=O)C1=CN(Cc2ccc(OC)cc2)C=C(C(=O)OCC)C1c1ccc(O)c(OCC)c1,-1.48
10,CCc1nnc2sc(-c3ccccc3C)nn12,3.88
11,CCOc1ccc(NC(=O)c2ccccc2Br)cc1,1.63
12,O=C(NCCc1ccc(Cl)cc1)C1CCC(CNc2c(N3CCOCC3)c(=O)c2=O)CC1 (centres unmarked),2.84
13,C=CCN1C(=O)S/C(=C/c2cccn2-c2ccc(C(=O)O)cc2)C1=O,-4.12
14,COc1ccccc1C1C(C(=O)c2ccc3c(c2)OCCO3)=C(O)C(=O)N1CCN(C)C (centres unmarked),-6.59
15,COc1ccc(NC(=O)c2cnn3c2NC(c2cccs2)CC3C(F)(F)F)cc1OC (centres unmarked),0.512
16,O=C(CCN1CCOCC1)NC12CC3CC(CC(C3)C1)C2,-6.12
17,Cc1noc(/C=C/c2ccco2)c1S(=O)(=O)N1CCC(C(=O)N(C)Cc2ccccc2)CC1,-4.96
18,O=C(CSc1nc(O)c2ccccc2n1)N1CCCCC1,-3.02
19,C[C@@H](C[C@H](NC(=O)c1ccc(-c2ccccc2Cl)cc1)C(=O)NCC#N)c1ccccc1OC(F)(F)F,-4.82
20,Cc1ccc(-c2cc(C(=O)N(C)C3CCCCC3)n[nH]2)cc1C,1.59
21,CCc1nc2ccccc2n2c(-c3ccc(OC)cc3)c3c(=O)n(C)c(=O)n(C)c3c12,0.315
22,C=CCSc1ncnc2c1sc1nc(N3CCOCC3)c3c(c12)CCCC3,-3.96
23,CCOc1cc(CN2CCN(Cc3cc(Br)ccc3OC)CC2)ccc1OC,-7.18
